{
  "source": "the supplement of paper PMC8728848",
  "experiment_in_all_cases": "glycan array binding signal (z-score within array); higher = stronger binding",
  "conditions_in_all_cases": "glycan notation: IUPAC condensed, linker removed",
  "key": {"[1]": {"target": "GalNAc(b1-4)GlcNAc(b1-2)Man", "how_it_was_run": "(§1)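 The binding signal is a Z-score computed within each array. Data were drawn from 3228 arrays in the Consortium for Functional Glycomics database, restricted to those with a known protein sequence. Scores were averaged over arrays of the same protein sequence at different concentrations or buffers, and over linkers, and negative values can be taken as non-binding.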"}, "[2]": {"target": "GalNAc(b1-4)GlcNAc(b1-2)Man(a1-3)[GalNAc(b1-4)GlcNAc(b1-2)Man(a1-6)]Man(b1-4)GlcNAc(b1-4)GlcNAc", "how_it_was_run": "as §1"}, "[3]": {"target": "GalNAc(b1-4)GlcNAc(b1-3)GalNAc(b1-4)GlcNAc", "how_it_was_run": "as §1"}, "[4]": {"target": "GalNAc(b1-4)GlcNAc6S", "how_it_was_run": "as §1"}, "[5]": {"target": "GalNAc(b1-6)GalNAc", "how_it_was_run": "as §1"}, "[6]": {"target": "GalNAc3S(b1-4)GlcNAc", "how_it_was_run": "as §1"}, "[7]": {"target": "GalNAc3S(b1-4)GlcNAc3S", "how_it_was_run": "as §1"}, "[8]": {"target": "GalNAc3S(b1-4)[Fuc(a1-3)]GlcNAc", "how_it_was_run": "as §1"}, "[9]": {"target": "GalNAc4S6S(b1-4)GlcNAc", "how_it_was_run": "as §1"}, "[10]": {"target": "GalNAc6S(b1-4)GlcNAc", "how_it_was_run": "as §1"}, "[11]": {"target": "Glc(a1-4)Glc", "how_it_was_run": "as §1"}, "[12]": {"target": "Glc(a1-4)Glc(a1-4)Glc(a1-4)Glc", "how_it_was_run": "as §1"}, "[13]": {"target": "Glc(a1-6)Glc(a1-6)Glc", "how_it_was_run": "as §1"}, "[14]": {"target": "Glc(a1-6)Glc(a1-6)Glc(a1-6)Glc", "how_it_was_run": "as §1"}, "[15]": {"target": "Glc(b1-4)Glc", "how_it_was_run": "as §1"}, "[16]": {"target": "Glc(b1-6)Glc", "how_it_was_run": "as §1"}, "[17]": {"target": "GlcA(b1-3)Gal", "how_it_was_run": "as §1"}, "[18]": {"target": "GlcA(b1-3)GlcNAc", "how_it_was_run": "as §1"}, "[19]": {"target": "GlcA(b1-6)Gal", "how_it_was_run": "as §1"}, "[20]": {"target": "GlcA3S(b1-3)Gal(b1-4)GlcNAc(b1-2)Man", "how_it_was_run": "as §1"}, "[21]": {"target": "GlcA3S(b1-3)Gal(b1-4)GlcNAc(b1-3)Gal(b1-4)Glc", "how_it_was_run": "as §1"}, "[22]": {"target": "GlcNAc(a1-3)Gal(b1-4)GlcNAc", "how_it_was_run": "as §1"}, "[23]": {"target": "GlcNAc(a1-4)Gal(b1-3)GlcNAc", "how_it_was_run": "as §1"}, "[24]": {"target": "GlcNAc(a1-4)Gal(b1-4)GalNAc", "how_it_was_run": "as §1"}, "[25]": {"target": "GlcNAc(a1-4)Gal(b1-4)GlcNAc", "how_it_was_run": "as §1"}, "[26]": {"target": "GlcNAc(a1-4)Gal(b1-4)GlcNAc(b1-3)Gal(b1-4)Glc", "how_it_was_run": "as §1"}, "[27]": {"target": "GlcNAc(a1-4)Gal(b1-4)GlcNAc(b1-3)Gal(b1-4)GlcNAc", "how_it_was_run": "as §1"}, "[28]": {"target": "GlcNAc(a1-4)Gal(b1-4)GlcNAc(b1-3)Gal(b1-4)GlcNAc(b1-3)Gal(b1-4)GlcNAc", "how_it_was_run": "as §1"}, "[29]": {"target": "GlcNAc(a1-4)Gal(b1-4)GlcNAc(b1-3)Gal(b1-4)[Fuc(a1-3)]GlcNAc(b1-3)Gal(b1-4)[Fuc(a1-3)]GlcNAc", "how_it_was_run": "as §1"}, "[30]": {"target": "GlcNAc(a1-6)Gal(b1-4)GlcNAc", "how_it_was_run": "as §1"}, "[31]": {"target": "GlcNAc(b1-2)Gal(b1-3)GalNAc", "how_it_was_run": "as §1"}, "[32]": {"target": "GlcNAc(b1-2)Man(a1-3)[GlcNAc(b1-2)Man(a1-6)]Man(b1-4)GlcNAc(b1-4)GlcNAc", "how_it_was_run": "as §1"}, "[33]": {"target": "GlcNAc(b1-2)Man(a1-3)[GlcNAc(b1-2)Man(a1-6)]Man(b1-4)GlcNAc(b1-4)[Fuc(a1-6)]GlcNAc", "how_it_was_run": "as §1"}, "[34]": {"target": "GlcNAc(b1-2)Man(a1-3)[GlcNAc(b1-4)][GlcNAc(b1-2)Man(a1-6)]Man(b1-4)GlcNAc(b1-4)GlcNAc", "how_it_was_run": "as §1"}, "[35]": {"target": "GlcNAc(b1-2)Man(a1-3)[GlcNAc(b1-4)][GlcNAc(b1-2)Man(a1-6)]Man(b1-4)GlcNAc(b1-4)[Fuc(a1-6)]GlcNAc", "how_it_was_run": "as §1"}, "[36]": {"target": "GlcNAc(b1-2)[GlcNAc(b1-4)]Man(a1-3)[GlcNAc(b1-2)Man(a1-6)]Man(b1-4)GlcNAc(b1-4)GlcNAc", "how_it_was_run": "as §1"}, "[37]": {"target": "GlcNAc(b1-2)[GlcNAc(b1-4)]Man(a1-3)[GlcNAc(b1-4)][GlcNAc(b1-2)Man(a1-6)]Man(b1-4)GlcNAc(b1-4)GlcNAc", "how_it_was_run": "as §1"}, "[38]": {"target": "GlcNAc(b1-2)[GlcNAc(b1-4)]Man(a1-3)[GlcNAc(b1-4)][GlcNAc(b1-2)[GlcNAc(b1-6)]Man(a1-6)]Man(b1-4)GlcNAc(b1-4)GlcNAc", "how_it_was_run": "as §1"}, "[39]": {"target": "GlcNAc(b1-2)[GlcNAc(b1-4)]Man(a1-3)[GlcNAc(b1-4)][GlcNAc(b1-2)[GlcNAc(b1-6)]Man(a1-6)]Man(b1-4)GlcNAc(b1-4)[Fuc(a1-6)]GlcNAc", "how_it_was_run": "as §1"}, "[40]": {"target": "GlcNAc(b1-2)[GlcNAc(b1-6)]Man(a1-6)[GlcNAc(b1-2)Man(a1-3)]Man(b1-4)GlcNAc(b1-4)GlcNAc", "how_it_was_run": "as §1"}, "[41]": {"target": "GlcNAc(b1-2)[GlcNAc(b1-6)]Man(a1-6)[GlcNAc(b1-2)Man(a1-3)]Man(b1-4)GlcNAc(b1-4)[Fuc(a1-6)]GlcNAc", "how_it_was_run": "as §1"}, "[42]": {"target": "GlcNAc(b1-2)[GlcNAc(b1-6)]Man(a1-6)[GlcNAc(b1-4)][GlcNAc(b1-2)Man(a1-3)]Man(b1-4)GlcNAc(b1-4)GlcNAc", "how_it_was_run": "as §1"}, "[43]": {"target": "GlcNAc(b1-3)Fuc", "how_it_was_run": "as §1"}, "[44]": {"target": "GlcNAc(b1-3)Gal", "how_it_was_run": "as §1"}, "[45]": {"target": "GlcNAc(b1-3)Gal(b1-3)GalNAc", "how_it_was_run": "as §1"}},
  "note": "This is one part of the list.",
  "data": [
    {"binder": "SP16664D-bth-476-27-476 (Bacteroides thetaiotaomicron) (protein) DDLEVGKNIDESAYSGIYENNAYLRDGKSNLVSKVVELHGETYATTVKMGLSKTPNTATSAKVKIDAAYLETYNKAHNTDFALYPQDLVTFANEGILTVNANTKSAEVEMTIRAGEGLQEDKTYAIPVAISDQSSDITIKDEDAKHCIYLVKDMRNAGDAYKGEGVMQGYLFFEVNDVNPLNTLSFQLENGKLLWDVVVLFAANINYDAEAGRPRVQCNPNVQYLLDNNETLLQPLRRRGVKVLLGLLGNHDITGLAQLSEQGAKDFAREVAQYCKAYNLDGVNYDDEYSNSPDLSNPSLTNPSTAAAARLCYETKQAMPDKLVTVFDWGQMYGVATVDGVDAKEWIDIVVANYGSAAYPIGQMTKKQCSGISMEFNLGGGGSLSASKAQSMIDGGYGWFMGFAPSPAKYGSVFSRLQGGGEVLYGSNVAAPTIFYKKNDPTPYKYPDDL", "values": [
      {"measurement": "glycan array binding signal (z-score)", "setting": "[1]", "value": -0.198},
      {"measurement": "glycan array binding signal (z-score)", "setting": "[2]", "value": 0.208},
      {"measurement": "glycan array binding signal (z-score)", "setting": "[3]", "value": -0.199},
      {"measurement": "glycan array binding signal (z-score)", "setting": "[4]", "value": -0.173},
      {"measurement": "glycan array binding signal (z-score)", "setting": "[5]", "value": -0.205},
      {"measurement": "glycan array binding signal (z-score)", "setting": "[6]", "value": -0.345},
      {"measurement": "glycan array binding signal (z-score)", "setting": "[7]", "value": -0.281},
      {"measurement": "glycan array binding signal (z-score)", "setting": "[8]", "value": -0.316},
      {"measurement": "glycan array binding signal (z-score)", "setting": "[9]", "value": -0.07},
      {"measurement": "glycan array binding signal (z-score)", "setting": "[10]", "value": -0.214},
      {"measurement": "glycan array binding signal (z-score)", "setting": "[11]", "value": -0.065},
      {"measurement": "glycan array binding signal (z-score)", "setting": "[12]", "value": -0.222},
      {"measurement": "glycan array binding signal (z-score)", "setting": "[13]", "value": -0.198},
      {"measurement": "glycan array binding signal (z-score)", "setting": "[14]", "value": -0.237},
      {"measurement": "glycan array binding signal (z-score)", "setting": "[15]", "value": -0.002},
      {"measurement": "glycan array binding signal (z-score)", "setting": "[16]", "value": 0.288},
      {"measurement": "glycan array binding signal (z-score)", "setting": "[17]", "value": -0.078},
      {"measurement": "glycan array binding signal (z-score)", "setting": "[18]", "value": -0.153},
      {"measurement": "glycan array binding signal (z-score)", "setting": "[19]", "value": 0.117},
      {"measurement": "glycan array binding signal (z-score)", "setting": "[20]", "value": -0.328},
      {"measurement": "glycan array binding signal (z-score)", "setting": "[21]", "value": -0.373},
      {"measurement": "glycan array binding signal (z-score)", "setting": "[22]", "value": -0.291},
      {"measurement": "glycan array binding signal (z-score)", "setting": "[23]", "value": -0.198},
      {"measurement": "glycan array binding signal (z-score)", "setting": "[24]", "value": -0.053},
      {"measurement": "glycan array binding signal (z-score)", "setting": "[25]", "value": 0.104},
      {"measurement": "glycan array binding signal (z-score)", "setting": "[26]", "value": -0.337},
      {"measurement": "glycan array binding signal (z-score)", "setting": "[27]", "value": -0.259},
      {"measurement": "glycan array binding signal (z-score)", "setting": "[28]", "value": -0.185},
      {"measurement": "glycan array binding signal (z-score)", "setting": "[29]", "value": 1.01},
      {"measurement": "glycan array binding signal (z-score)", "setting": "[30]", "value": -0.207},
      {"measurement": "glycan array binding signal (z-score)", "setting": "[31]", "value": -0.173},
      {"measurement": "glycan array binding signal (z-score)", "setting": "[32]", "value": -0.399},
      {"measurement": "glycan array binding signal (z-score)", "setting": "[33]", "value": -0.181},
      {"measurement": "glycan array binding signal (z-score)", "setting": "[34]", "value": 0.108},
      {"measurement": "glycan array binding signal (z-score)", "setting": "[35]", "value": -0.044},
      {"measurement": "glycan array binding signal (z-score)", "setting": "[36]", "value": -0.216},
      {"measurement": "glycan array binding signal (z-score)", "setting": "[37]", "value": -0.339},
      {"measurement": "glycan array binding signal (z-score)", "setting": "[38]", "value": 0.433},
      {"measurement": "glycan array binding signal (z-score)", "setting": "[39]", "value": -0.089},
      {"measurement": "glycan array binding signal (z-score)", "setting": "[40]", "value": 0.031},
      {"measurement": "glycan array binding signal (z-score)", "setting": "[41]", "value": 0.076},
      {"measurement": "glycan array binding signal (z-score)", "setting": "[42]", "value": -0.137},
      {"measurement": "glycan array binding signal (z-score)", "setting": "[43]", "value": 0.007},
      {"measurement": "glycan array binding signal (z-score)", "setting": "[44]", "value": -0.2},
      {"measurement": "glycan array binding signal (z-score)", "setting": "[45]", "value": -0.156}
    ]}
  ]
}
